T1: IL-17RB (Homo sapiens, UniProt Q9NRM6)
T1 construct: purchased R&D systems
T1 sequence (Q9NRM6 18-502): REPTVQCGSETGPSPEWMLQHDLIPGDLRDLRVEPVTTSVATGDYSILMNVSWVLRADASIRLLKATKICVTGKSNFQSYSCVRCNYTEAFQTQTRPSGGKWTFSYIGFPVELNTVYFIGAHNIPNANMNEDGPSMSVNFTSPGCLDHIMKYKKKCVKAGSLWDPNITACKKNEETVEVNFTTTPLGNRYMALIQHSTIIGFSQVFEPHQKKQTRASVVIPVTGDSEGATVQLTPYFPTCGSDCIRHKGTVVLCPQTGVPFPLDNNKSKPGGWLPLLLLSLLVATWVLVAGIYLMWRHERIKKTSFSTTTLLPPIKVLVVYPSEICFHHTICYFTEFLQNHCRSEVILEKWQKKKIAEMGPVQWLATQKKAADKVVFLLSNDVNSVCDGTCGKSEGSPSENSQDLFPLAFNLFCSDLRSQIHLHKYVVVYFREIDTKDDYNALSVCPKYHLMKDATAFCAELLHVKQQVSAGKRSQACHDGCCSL

B1: SM17-anti TSLP 1# bsBp: bispecific binding protein, SM17 IgG fused to anti-TSLP scFv; HC SEQ ID NO: 60, LC SEQ ID NO: 33 (antibody)
heavy: MDLLHKNMKHLWFFLLLVAAPRWVLSQVQLVQSGAEVKKPGASVKVSCKASGYTFISYWMNWVRQAPGQGLEWMGRIDPYDSEIQYNQKFKDRVTMTRDTSISTAYMELSRLRSDDTAVYYCARSGGFDWFAYWGQGTLVTVSSASTKGPSVFPLAPCSRSTSESTAALGCLVKDYFPEPVTVSWNSGALTSGVHTFPAVLQSSGLYSLSSVVTVPSSSLGTKTYTCNVDHKPSNTKVDKRV[sequence of human IgG4 Fc with S228P (EU numbers) not given]GGGSGGGGSGGGGSQMQLVESGGGVVQPGRSLRLSCAASGFTFRTYGMHWVRQAPGKGLEWVAVIWYDGSNKHYADSVKGRFTITRDNSKNTLNLQMNSLRAEDTAVYYCARAPQWELVHEAFDIWGQGTMVTVSSGGGGSGGGGSGGGGSGGGGSSYVLTQPPSVSVAPGQTARITCGGNNLGSKSVHWYQQKPGQAPVLVVYDDSDRPSWIPERFSGSNSGNTATLTISRGEAGDEADYYCQVWDSSSDHVVFGGGTKLTVL
light: DIQMTQSPSSLSASVGDRVTITCRASENINSNLAWYQQKPGKAPKLLLYDVTNLADGVPSRFSGSGSGTDYTLTISSLQPEDFATYYCQHFWGPPYTFGGGTKVEIKRTVAAPSVFIFPPSDEQLKSGTASVVCLLNNFYPREAKVQWKVDNALQSGNSQESVTEQDSKDSTYSLSSTLTLSKADYEKHKVYACEVTHQGLSSPVTKSFNRGEC
B2: SM17-anti TSLP 3# bsBp: bispecific binding protein, SM17 IgG fused to anti-TSLP scFv; HC SEQ ID NO: 62, LC SEQ ID NO: 33 (antibody)
heavy: MDLLHKNMKHLWFFLLLVAAPRWVLSQVQLVQSGAEVKKPGASVKVSCKASGYTFISYWMNWVRQAPGQGLEWMGRIDPYDSEIQYNQKFKDRVTMTRDTSISTAYMELSRLRSDDTAVYYCARSGGFDWFAYWGQGTLVTVSSASTKGPSVFPLAPCSRSTSESTAALGCLVKDYFPEPVTVSWNSGALTSGVHTFPAVLQSSGLYSLSSVVTVPSSSLGTKTYTCNVDHKPSNTKVDKRV[sequence of human IgG4 Fc with S228P (EU numbers) not given]GGGSGGGGSGGGGSQVQLVESGGGLVQPGGSLRLSCAASGFTFSSYYMSWVRQAPGKGLEWVSGIFFDGETYYAGSVKGRFTISRDNSKNTLYLQMNSLRAEDTAVYYCARQQYFDHIDIWGQGTLVTVSSGGGGSGGGGSGGGGSGGGGSDIELTQPPSVSVAPGQTARISCGGDSLGGKYVYWYQQKPGQAPVLVIYGDSKRPSGIPERFSGSNSGNTATLTISGTQAEDEADYYCQSYDLQSLNIVFGGGTKLTVLGQ
light: DIQMTQSPSSLSASVGDRVTITCRASENINSNLAWYQQKPGKAPKLLLYDVTNLADGVPSRFSGSGSGTDYTLTISSLQPEDFATYYCQHFWGPPYTFGGGTKVEIKRTVAAPSVFIFPPSDEQLKSGTASVVCLLNNFYPREAKVQWKVDNALQSGNSQESVTEQDSKDSTYSLSSTLTLSKADYEKHKVYACEVTHQGLSSPVTKSFNRGEC

Experiments:
TSLP [1] = target: T2, TSLP (Homo sapiens, UniProt Q969D9); experiment: ELISA, antigen binding specificity of bsBp (TSLP); design: key: −: no binding; +: weak; ++: moderate; +++: strong binding; N/A refers to no binding affinity; conditions: 33.5 nM; antigen coated at 2 μg/mL
T2 construct: purchased R&D systems
Description: (§1) Binding specificities of bsBp were evaluated by standard ELISA assays. Briefly, ELISA strips were coated with the respective target antigens, including IL17RB, IL-33, or TSLP (R&D systems) at a final concentration of 2 μg/mL. Bispecific antibodies were added at 33.5 nM to ELISA strips coated with the desired antigen. After incubation under room temperature for 2 hours, ELISA strips were washed five times with PBS. […] No result is provided for SM17-human TSLPR as the yield was too low to be detected.

IL-17RB = target: T1, IL-17RB; experiment: ELISA, antigen binding specificity of bsBp (IL-17RB); design: key: −: no binding; +: weak; ++: moderate; +++: strong binding; N/A refers to no binding affinity; conditions: 33.5 nM; antigen coated at 2 μg/mL
Description: as §1

TSLP [2] = target: T2, TSLP; experiment: Bio-Layer Interferometry (Octet), binding kinetics of bsBp to human TSLP; conditions: for Ka: bsBp or SM17 immobilized at 20 μg/mL
Description: The binding affinity of bsBp to the targeted alarmins was determined using a bio-Layer Interferometry analysis (Octet ReD96 system, Sartorius). bsBp or SM17 (20 μg/mL) was immobilized on biosensors via binding to anti-human Fab CH1 region; serially diluted human IL33 and TSLP (158.7 nM, 79.4 nM, 39.7 nM) (R&D systems) were added to plot the association and dissociation curve according to the manufacturer's specification. Biosensors immobilized with irrelevant antibody (SM03, anti-human CD22 chimeric IgG1 antibody, SinoMab BioScience Limited, 20 μg/mL) were used as control reference.

Human PBMCs = experiment: CCL17 release from human PBMC incubated with TSLP; type: cell-based; design: key to Intensity of specific cytokine inhibition, CCL-17: −: no binding; +: weak; ++: moderate; +++: strong binding; N/A refers to no binding affinity; conditions: 5 μg/ml; for Intensity of specific cytokine inhibition, CCL-17: human PBMC
Description: Human PBMCs (4×10^5 per group, Ixcells) were incubated with IL-2 (10 unit/mL, PeproTech) and various alarmin/alarmin combinations to mimic the pro-inflammatory cytokines release during allergic diseases. For IL-5 and IL-13 releases, PBMCs were incubated with IL-2 and three alarmins (all 10 ng/ml) for three days. For CCL17 release, PBMC was incubated with TSLP (10 ng/ml) for 1 day. For CCL8 and IFNγ releases, PBMCs were incubated with IL-12 (10 ng/ml, Sino Biological) and IL-33 (10 ng/ml) for 1 day. Cells were pretreated with SM17 (5 μg/ml) or IgG4 isotype control (5 μg/ml) for an hour before the addition of cytokines.
Supernatants were collected and the cytokine concentration were measured by ELISA kits (R&D systems). These established assays were used to test the potency of and SM17 and bsBps. […] Results were expressed in absolute amount in pg/ml.
SM17, three different SM17-anti-IL33 bsBps and three different SM17-anti-TSLP bsBps (all at 5 μg/ml) were added to human PBMC cultures under conditions that shall induce the release of IFNγ, CCL8, CCL17 and IL-5 as described in Example 11 above. The levels of different cytokines and chemotactic factors in supernatant obtained in induced PBMC were evaluated using standard ELISA methods.

[3] = tested on: ILC2 population in human PBMC; experiment: ILC2 cell population in human PBMC culture (flow cytometry); type: cell-based; design: key: −: no inhibition; +: weak; ++: moderate; +++: strong inhibition; conditions: IL-2 (10 unit/mL) and three alarmins (10 ng/ml), 5 days
Description: (§2) While alarmins are known to work in concert to enhance ILC2 and Th2 cell functions such as increase in cell population, steroids such as Dexamethasone (Dex) can negate these effects, resulting in the mitigation of type 2 immune responses [Jia, Yi et al. American Journal Of Respiratory Cell And Molecular Biology, vol. 55, 5 (2016): 675-683]. ILC2 and Th2 cell population can be determined by flow cytometry (BD FACSVerse) following standard procedures known to those skilled in the art.

Normal human DCs = experiment: Dendritic cell potency assay, TSLP-induced CCL17 production; type: cell-based; design: key: −: no inhibition; +: weak; ++: moderate; +++: strong inhibition; conditions: 5 μg/mL; TSLP 10 ng/mL, 5 days
Description: TSLP from inflamed epithelium promotes maturation of dendritic cells (DCs) to prime Th2 responses via CCL17, which induces chemotaxis of CD4+ T cells to mediate inflammation (Kitajima and Ziegler. 2013. “Cutting Edge: Identification Of The Thymic Stromal Lymphopoietin-Responsive Dendritic Cell Subset Critical For Initiation Of Type 2 Contact Hypersensitivity”. J Immunol 191: 4903-4907; Bleck et al. 2015. “Co-Expression Of Type 2 Immune Targets In Sputum-Derived Epithelial And Dendritic Cells From Asthmatic Subjects”. J Allergy Clin Immunol 136: 619-627.e5). Normal human DCs were obtained from Lonza (Bend, OR). The DCs were cultured in LGM-3 medium (Lonza). TSLP (10 ng/mL) is added into the DC cultures for 5 days in the presence of 5 μg/mL of SM17, IgG4 isotype control (Sino Biological), SM17-TSLPR bsBp (SM17 fused with TSLP receptor extracellular domain) or SM17-anti-TSLP bsBp 2 #. The supernatants are harvested and the levels of CCL17 measured by ELISA following the manufacturer's specification (R&D systems).

[4] = tested on: Th2 cell population in human PBMC; experiment: Th2 cell population in human PBMC culture (flow cytometry); type: cell-based; design: key: −: no binding; +: weak; ++: moderate; +++: strong binding; N/A refers to no binding affinity; conditions: IL-2 (10 unit/mL) and three alarmins (10 ng/ml), 5 days
Description: as §2

[5] = tested on: Th2 cell population in human PBMC; experiment: as above; type: cell-based; design: key: −: no inhibition; +: weak; ++: moderate; +++: strong inhibition; conditions: IL-2 (10 unit/mL) and three alarmins (10 ng/ml), 5 days
Description: as §2

| Molecule | Intensity of specific antigen binding, TSLP coated on ELISA strips (TSLP [1]) | Intensity of specific antigen binding, IL-17RB coated on ELISA strips (IL-17RB) | Kdis (TSLP [2]) | Ka (TSLP [2]) | CCL17 release, suppression effect as compared to SM17 (in words) (Human PBMCs) | Intensity of specific cytokine inhibition, CCL-17 (Human PBMCs) | Cell proliferation inhibition, ILC2 [3] | Potency, inhibition of CCL17 release on dendritic cells (Normal human DCs) | Cell proliferation inhibition, Th2 [4] | Kd (TSLP [2]) | Cell proliferation inhibition, Th2 [5] |
| --- | --- | --- | --- | --- | --- | --- | --- | --- | --- | --- | --- |
| B1 | +++ | +++ | 0.000241 s⁻¹ | 472000 M⁻¹ s⁻¹ | stronger suppression effect | + | + | − | ++ |  |  |
| B2 | +++ | +++ | 3.17e-05 s⁻¹ | 481000 M⁻¹ s⁻¹ | stronger suppression effect | + |  | − |  | 0.0658 nM | +++ |

— patent publication US20240409647A1, “BISPECIFIC BINDING PROTEINS AGAINST ALARMINS AND USES THEREOF” (SINOMAB BIOSCIENCE LIMITED, priority 2022, published 2024)
